Laboratory results taken from the supplement of paper PMC11417369.
The other results are listed elsewhere or left out.

Tested on: PfHDP1 homeodomain (GST-tagged)
Experiment: gcPBM binding intensity (ln(normalized median fluorescence intensity)); higher = stronger DNA binding
Outline: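 GST-tagged P. falciparum DNA-binding domains, expressed in E. coli (about 25 μg on average), were applied for 1 h to an Agilent 4 × 180k array of primer-extended double-stranded 36-bp intergenic genomic probes plus negative controls. The binding buffer was 1× PBS with 1% milk, 0.2 mg/ml BSA, 0.5% salmon testes DNA and 0.03% Triton X-100. Bound protein was detected with Alexa488 anti-GST antibody and scanned at 488 nm. Binding intensity is the highest Masliner-normalised natural-log median intensity across replicate spots of either probe orientation.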

Row | Sequence | gcPBM binding intensity (ln)
1 | TATAAACGCACCTACACACACAACGTAAATGCATTG [CACACA_site7120] | 8.87
2 | GCCGCACCCAGATACGCACACAAGAAAAAAATATTC [CACACA_site3456] | 7.5
3 | TATGGATAAATAAATACACACATAAATTTAAATATA [CACACA_site1282] | 6.65
4 | TAAAATATAATGATCACACATATAAACAAGTGGGTA [CACACA_site4651] | 6.47
5 | ATTTTTAAATACAGTACACACATGGGTTTAAATTAT [CACACA_site2884] | 6.62
6 | TATTCTAGAATTTTAACACACAAGAATATAAACTTT [CACACA_site6757] | 6.13
7 | GATTATTTTAGAAGTACACACATTTATATATAATAA [CACACA_site5429] | 6.48
8 | TATTTATATTTATATACACACATATATACCTATATA [CACACA_site7820] | 6.58
9 | GGTTATATGATAGGATGTACAATTAAAAGTAAATAT [XGTACX_site5083] | 6.85
10 | TTATTATTCTTAAGGATATAACAAAAAAGAAAAATT [CACACA_negctrl_site1402] | 6.26
11 | TCCTATAAACAAATTTGTACATATAAGAATATATTC [XGTACX_site3892] | 6.71
12 | ATAGTATACAGACACACACACACACGGATATAAATA [CACACA_site6914] | 6.96
13 | AAGTTTAAGAAATAATTCATATTTACTTCCATCCTC [GTGCAC_negctrl_site494] | 6.18
14 | ATATATATATATATATGTACTAAATATTCATCCTTA [XGTACX_site6039] | 9.37
15 | AAATGGAAAAGGTGTACACAAAAAAAAGGGAAAAGC [CACACA_site5331] | 7.17
16 | TTTTTTTTTTTTTTTGCACACACATTGAATTATTAT [CACACA_site198] | 9.13
17 | TACATATAAATATATAAATATAAATAAATAAATAAA [XGTACX_negctrl_site180] | 6.45
18 | TTACCAAAAACCTCAAGTACAAAAAATCCCTAATAT [XGTACX_site2313] | 6.55
19 | CTTTATATATAGTGTACACATTAAACAAATCTCAAT [CACACA_site5845] | 6.78
20 | ATATTTATAATTTTTTGTACACATTTTTTAAAGATA [XGTACX_site1784] | 6.52
21 | TATAAGAGAAGAAGAAAAAAAAGGTTTCTATAGAAA [XGTACX_negctrl_site421] | 6.35
22 | AAGAAGCATAAATGTACACACATATTTATATATTAA [CACACA_site1332] | 6.42

Row | Sequence | gcPBM binding intensity (ln)
23 | CATATAGTAATATATACACACACTTGTCTTGTAAAA [CACACA_site8238] | 6.54
24 | TATATATATATATTATGTACGTATCAGTTTGTATGT [XGTACX_site695] | 8.92
25 | TTATAAATTAGAGGTACACACAAAAAAAAAAAGAAA [CACACA_site6740] | 6.57
26 | CACGACATTAACAATACATGCAGAAAAACAAAAAAT [TGCATGCA_site689] | 7.04
27 | ATTTTTAATATTATTACACACACTAAAAAAAAAAAA [CACACA_site1067] | 6.41
28 | TTGGTACCTATAGATACACACATATATACATATATA [CACACA_site3402] | 6.48
29 | TAAGAGTAGTTATATACACACATGTATATTATAGTT [CACACA_site6815] | 6.41
30 | TATATATGTATATATGGTACAGAATATTCTACATTA [XGTACX_site5077] | 6.62
31 | TACCACATCGGTAAATGTACTTATAAAAAAAAAAAA [XGTACX_site3364] | 6.15
32 | CATCCACATATATGTACACACATATATATATATATA [CACACA_site2964] | 9.46
33 | CAATCATTTTATTGTTGTACAGTAATTATGAATTCA [XGTACX_site7508] | 6.42
34 | AATGGGTTAGCACATACACACCAATATATTATATAT [CACACA_site9011] | 6.87
35 | ATTTATGATATGTAAACATGCATAAAAATTTCAAAA [TGCATGCA_site858] | 6
36 | TATAAACTTAATTTGAGTACTTAATAATAATTTTGT [XGTACX_site3730] | 6.11
37 | AAACAACAAAAATGATATATATAAAATTTATAATAT [XGTACX_negctrl_site185] | 6.42
38 | TATTTAATTATATAAAATTAAATTTTTAATTCTTCC [CACACA_negctrl_site473] | 5.92
39 | TATGGATTACACAATTGTACAAGAAAAATGTAAATA [XGTACX_site4040] | 7.04
40 | ATGCATAAAAGAAATACACACATAAATATATAAATA [CACACA_site2163] | 6.63
41 | TGTCATGATACATACACACACATACACATACACATA [CACACA_site2135] | 7.27
42 | CCCACGTATATTTTGTGTACATAAATAAATAAATAA [XGTACX_site4046] | 7.24
43 | ACATTATATAAATATATACATATATATATATATAAA [GTGCAC_negctrl_site115] | 6.46
44 | TTTGATAAATGATACACACACAATATTTATAAAATA [CACACA_site7040] | 6.93

Row | Sequence | gcPBM binding intensity (ln)
45 | TCTATTATCCTTTGCACACAAAATAAATGAAAAAAT [CACACA_site3029] | 9.75
46 | ATATAAGTTTTTTCTCAAAAAGTATAACGAGCATGA [CACACA_negctrl_site1375] | 7.37
47 | ATGACGTAGTGGTGTACACACATGGTACCTTTATTC [CACACA_site1547] | 7.28
48 | AAAAAAATATTCAAAGCATGCCTATTTACACATATT [TGCATGCA_site806] | 6.4
49 | TCAGAAATATTACAAAGTACATGCAACGAAAATTTC [XGTACX_site5061] | 6.9
50 | ACACAATGTAGTGTATAAATACAATAAAAGGTTGTA [TGCATGCA_negctrl_site251] | 6.51
51 | TCTTATAATTTACCTACACACAGGAAATATATAAAT [CACACA_site294] | 6.4
52 | TGATATTTAAATTTTGCACACGCATATGAAATTAGG [CACACA_site1034] | 10.1
53 | TTTTTTTCATAATATACACACAAAAAAAAAAAAAAA [CACACA_site3224] | 6.38
54 | ATATATATATATATGTGTACATATATATATCATATG [XGTACX_site3126] | 9.23
55 | TATACTCATATATAAACACACAAAAAAAAAAAAAAA [CACACA_site5165] | 6.37
56 | AAAAAAAAAAAAAAAGTGCATTAATAAATTTTAATA | 7.56
57 | ATACGAAAATATTTTGCACACTATAATTATTCATAT [CACACA_site1765] | 10.3
58 | TTTCCCTACCAAAAGTGTACTTATACATATTTTTAT [XGTACX_site5495] | 6.46
59 | ACATATTATTCTTCTTGTACACATAAATTTTATAAA [XGTACX_site299] | 7.19
60 | ACATCTATGTATAATACACACACTAATATATAATTG [CACACA_site5134] | 6.62
61 | TCTTTATATCATCTTTCTAAATATATATATATATAA [CACACA_negctrl_site77] | 6.64
62 | TAATAATAATTAAAATGAGATAAATAAATATATATA [TGCATGCA_negctrl_site322] | 6.3
63 | CTATTAATGTACTCTACACACATATAAGAGGACATT [CACACA_site471] | 6.46
64 | TTATATATTTATAAATGTACGTATAAGAATTTAATT [XGTACX_site8541] | 6.68
65 | AATGTAAAACGAAATGCACACTATGGAAAATATAAA [CACACA_site4559] | 8.85
66 | TATATATTAATATATGCATGTTAATATATTATGAAA [TGCATGCA_site61] | 6.26

Row | Sequence | gcPBM binding intensity (ln)
67 | TAAAATATATTTTTCTGTACACAAAAATATATTAAA [XGTACX_site2813] | 6.24
68 | ACAGTATAAAAATAAGCACACACACTAATATATATT [CACACA_site8212] | 6.71
69 | TAAGTTTGTGCAAGTGGTACATATATATAAATTTAT [XGTACX_site5944] | 8.56
70 | TGATTATAGACACGCGCACACACAACAAAAAAAAAA [CACACA_site9179] | 6.85
71 | TGGATTTTTTGATTTTTGTTTTTCTTCTTTCCCCCC [CACACA_negctrl_site1471] | 7.59
72 | TTTACATAAACTGGTAGTACATAATATGGCTTAAAA [XGTACX_site5002] | 6.26
73 | TTAGCAACTATTACTACACACATTTGTATTTAATTT [CACACA_site4961] | 6.69
74 | AACCAAAATTTTTGTCGTACAAAAGAGCAAATGTAG [XGTACX_site6472] | 7.72
75 | ACGATGTTCATCACTACACACACAAAGAAATATATA [CACACA_site8859] | 6.77
76 | TATAATATTATAGTTTGTACGAAAATAATATATTTA [XGTACX_site8673] | 6.49
77 | AAAAATAAAAATGAGTGTACTTTAAGCCCTACACTT [XGTACX_site828] | 6.51
78 | TTTTACTATGATATTTATATATCTATATATGTATAT [XGTACX_negctrl_site499] | 6.11
79 | AAAAGTGTATGTAGGTGTACTTTTTATTTCTTCTTT [XGTACX_site8819] | 6.16
80 | ATAACAAAATAAAACACACACACAAATGTACCTATA [CACACA_site7190] | 6.71
81 | TAAAGGCAAACAAACACACACACATATATACCTATA [CACACA_site7078] | 6.77
82 | TATTTATAAATATAAACACACAACATTATATGCATA [CACACA_site5748] | 6.7
83 | TATATATATATATATATATATATTAATATATATTAC [XGTACX_negctrl_site103] | 9.55
84 | GATACAAAATGGGGAACACACACATATATATATATA [CACACA_site9278] | 9.09
85 | CAAAATTTATATAATAGTACACATGATCTTTTTTCT [XGTACX_site8956] | 6.45
86 | TATATATATATATAATGTACGAATAGAAAAAAAAAA [XGTACX_site7231] | 8.79
87 | AATGGATTAGCTAGCACACACAAAAAAAAAAAAAAA [CACACA_site3031] | 6.42
88 | TTTTTTTTTTTTTAATGTACCCATGGGCACATAGGT [XGTACX_site486] | 6.38
